# Data published in the supplement of paper PMC10338343.
# ± gives the standard deviation. Whole data set: some 3,700 sequences, median “pre-steady-state target cleavage rate” near 0.02, cut for the highest 2% near 0.23. This is a selection; strong and weak results do not stand in their true shares.
# Tested on: MILI (PIWIL2) piRISC loaded with Kctd7 piRNA (26 nt)
# Assay: pre-steady-state target cleavage rate (min^-1); MIWI and MILI are mouse PIWI proteins and EfPiwi is from a freshwater sponge; tags in brackets are library labels; higher = faster piRNA-guided slicing of the target
# Conditions: guide: Kctd7 piRNA 5'p-UGUUAAUCUCUCAGAGAAGGUGACAG; auxiliary factor: 500 nM mouse GTSF1
# How it was run: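 Active affinity-purified piRISC carrying one synthetic guide (1 nM) was mixed with a transcribed, DNA-blocked target RNA library […] in HEPES–potassium acetate buffer at 33 °C for 0–8 or 0–960 min, with or without 500 nM GTSF1 partner protein. Uncleaved targets were then sequenced and normalised to depth and to weakly complementary targets. Three trials were pooled, and k3 was capped at 0.0001 min^-1. A burst-and-steady-state fit was applied to obtain the pre-steady-state cleavage rate.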
# 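Also: 1 nM active piRISC with 0.1 nM target library at 33 °C single turnover.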
row,Sequence,pre-steady-state target cleavage rate
1,UAGUGACAGUCCUUCACUGAGAGAUUUACA,0.00586 ± 0.0042
2,UAGUGACACUCCUACUCUGAGAGAUUAACA,0.0925 ± 0.0083
3,UAGUGUCUCUCCUUCUCUGAGAGAUUAACA,0.0622 ± 0.013
4,UAGUGAGUCACCUUCUCUGAGAGAUUAGCA,0.168 ± 0.036
5,UAGUGACUCACCAUCUCUGAGAGAUUUACA,0.0751 ± 0.013
6,UAGUGACACACGUUCUCUGAGACAUUAACA,0.00413 ± 0.0027
7,UAGUGACAGUCCUACUCUGAGAGAUUUACA,0.00954 ± 0.0021
8,UAGUGACUCACCUUCUCUGUGAGAUUAUGA,0.00983 ± 0.0044
9,UAGUGACAGACCUUGUGUGAGAGAUUAACA,0.0439 ± 0.0099
10,UAGUGACAGUGCUUCUCUGAGAGAUUACACA,0.00804 ± 0.0026
11,UAGUGACAGACCUUCUCUGUGAGUUUAACA,0.0183 ± 0.0069
12,UAGUGACACACGUUGUCUGAGAGAUUAACA,0.126 ± 0.0098
13,UAGUGAGACACCUUCUCAGAGAGAUUAACA,0.0908 ± 0.011
14,UAGUGACAGUGCUUACUCUGAGAGAUUAACA,0.0124 ± 0.0026
15,UAGUGAGACACCUUCUCUGUGAGAUUAACA,0.0419 ± 0.0068
16,UAGUGUGUCACCUUCUCAGAGAGAUAAACA,0.0708 ± 0.021
17,UAGUGACUCUCCUUCUCUCAGAGAUUAACA,0.0261 ± 0.0033
18,UAGUGACAGUCCAUCUCUGUGAGAUUAACA,0.00917 ± 0.0019
19,UAGUGUGUCACCAUCUCUCAGAGAUUAACA,0.0511 ± 0.01
20,UAGUGACAGUGGAUGUCUGAGAGUUUAACA,< 0.0001
21,UAGUGUGUCACCUUCUCUAAGAGAUUAACA,0.1 ± 0.015
22,UAGUGAGUCACCAUUCUCUGAGAGAUUAACA,0.19 ± 0.015
23,UAGUGUGUCACGUUGUCUGAGAGAUUAACA,0.137 ± 0.01
24,UAGUGUGUCAGGUUCUCUGAGAGAUUAACA,0.13 ± 0.012

row,Sequence,pre-steady-state target cleavage rate
1,UAGUGAGUCACCUUCUCUGAUAGAUUAACA,0.0547 ± 0.0083
2,UAGUGACAGUCCUUCUCUGAAAGAUUAACA,0.0226 ± 0.0043
3,UAGUGACAGUGGAAGAGAGAGAGAUUAUACA,< 0.0001
4,UAGUGACCCACCUUCUCUGAGAGAUUAACA,0.286 ± 0.039
5,UAGUGAGUCAGCUUCUCAGAGAGAUUAACA,0.114 ± 0.0093
6,UAGUGUGUCACGUUCUCUGAGUGAUUAACA,0.00506 ± 0.0039
7,UAGUCUGUCACCAUUCUCUGAGAGAUUAACA,0.16 ± 0.0092
8,UAGUGACAGUCCUUCUCAGAGAGAUUUACA,0.0138 ± 0.0054
9,UAGUCUGUCAGCUUCUCUGAGAGAUUAUCA,0.0964 ± 0.013
10,UAGUGUGUCACCUUCUCUGAGAGAUUUAGA,0.0575 ± 0.02
11,UAGUGACAGUCCUUCACUGUGAGAUUAACA,0.0194 ± 0.0046
12,UAGUGACUCACCUUCUCUGAGAGAUAUACA,0.0595 ± 0.012
13,UAGUCUGUCACCUUCUAUGAGAGAUUAACA,0.0891 ± 0.014
14,UAGUGACAGUGGAAGACUGAGAGAUUAAGCA,< 0.0001
15,UAGUGACAGACCUUCUCUGAGAGAUUAACA [g2:g21:cont:t1A],0.0904 ± 0.0083
16,UAGUCUGUCAGGAUCUCUGAGAGAUUAAGA,0.0158 ± 0.0033
17,UAGUGAGUUACCUUCUCUGAGAGAUUAACA,0.145 ± 0.015
18,UAGUGACACACCUUUCUCUGAGAGAUUAACA,0.109 ± 0.011
19,UAGUGACACACCAAGUCUGAGAGAUUAACA,0.0391 ± 0.007
20,UAGUGUGUCACCUUCUGUGAGAGAUUAUGA,0.00882 ± 0.0045
21,UAGUGACUAACCUUCUCUGAGAGAUUAACA,0.0637 ± 0.009
22,UAGUGUGUAACCUUCUCUGAGAGAUUAACA,0.126 ± 0.018
23,UAGUGAGUCACCAACUCUGAGAGAUUAUGA,0.0074 ± 0.0041
24,UAGUGACAGUGCUUCUCUGAAGAUUAACA,< 0.0001

row,Sequence,pre-steady-state target cleavage rate
1,UAGUGACACUCCUUCUCUGUGAGAUUAACA,0.0359 ± 0.0058
2,UAGUCUGUCUGCUUCUCUGAGAGAUUAUGA,0.00777 ± 0.0017
3,UAGUGACAGACUUCUCUGAGAGAUUAACA,0.0162 ± 0.0049
4,UAGUGAGUGUCCUUCUCUGAGAGAUUAACA,0.113 ± 0.013
5,UAGUGACAGUGGUUCUCUGAGAGAUUAACG [g2:g18:cont:t1G],0.0112 ± 0.0028
6,UAGUGACAGACCUUCUCUGAGAGAUUAAGA,0.0554 ± 0.014
7,UAGUGACAGUGGUUCUCUGAGAGAUUAACA [g2:g18:cont:t1A],0.0125 ± 0.0013
8,UAGUGACAGUGGAAGACUGAGAGAUUAACU [g2:g14:cont:t1U],< 0.0001
9,UAGUGACAGACCUUCACUGAGAGAUUAACA,0.0685 ± 0.0077
10,UAGUGACACACCAACUCUGAGAGAUAUUGA,< 0.0001
11,UAGUGACAGUCCUACUCUGAGAGAUUAACA,0.0344 ± 0.0052
12,UAGUGAGUCAGCUUCUCUGAGAGAUUAUGA,0.0138 ± 0.0051
13,UAGUGAGUCACCUAUCUCUGAGAGAUUAACA,0.161 ± 0.011
14,UAGUGUGUCACCUUCUCUGAGAGAUUAAGA,0.145 ± 0.036
15,UAGUGUGUCACCUUGUCUCAGAGAUUAACA,0.0268 ± 0.0067
16,UAGUCUCUCACCUUCUCUGAGAGUUUAACA,0.183 ± 0.024
17,UAGUCUGUCAUCCUUCUCUGAGAGAUUAACA,0.0662 ± 0.01
18,UAGUGACAGUCCUUCUCUGAGAGAUCUAACA,0.0222 ± 0.0057
19,UAGUGACUCACGUUCUCUGAGAGAUUAACA,0.126 ± 0.0062
20,UAGUGAGUCAGCUUCUCUGAGAGAUUAAGA,0.0631 ± 0.017
21,UAGUGACUCACCUUCUCUGUGAGAUAAACA,0.0187 ± 0.0053
22,UAGUGACAGACCAUCUCUGAGACAUUAACA,0.00754 ± 0.0049
